In the supplement of paper PMC4967469:

Tests used:
Experiment in all cases: Viability of human cancer cell lines after 72 h of drug (GDSC screen)
[1] = compound: Cc1ccc2nc(NCCN)c3ncc(C)n3c2c1 [BMS-345541]; settings: top dose 16 µM
Protocol: (§1)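 Human cancer cell lines in 384-well plates, medium with 10% serum, drug for 72 h over a 256-fold dose range (nine 2-fold or five 4-fold steps up to the top dose). Adherent lines were fixed and stained with the nucleic acid dye Syto60, suspension lines read with resazurin; signal relative to control wells, capped at 0 and 100%. One two-parameter sigmoid per drug and line, fitted in a mixed model over all curves with the slope shared within a line.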

[2] = compound: Oc1nc(-c2ccc(C(F)(F)F)cc2)nc2c1CSCC2 [XAV 939]; settings: top dose 5 µM; top dose inferred
Protocol: as §1

[3] = compound: COc1cc([C@@H]2c3cc4c(cc3[C@@H](O[C@@H]3O[C@@H]5CO[C@@H](C)O[C@H]5[C@H](O)[C@H]3O)[C@H]3COC(=O)[C@H]23)OCO4)cc(OC)c1O [Etoposide]; settings: top dose 16 µM
Protocol: as §1

[4] = compound: COc1ccc(C(=O)CC2(O)C(=O)Nc3c(Cl)ccc(Cl)c32)cc1 [YK 4-279]; settings: top dose 10 µM
Protocol: as §1

[5] = compound: O=C(O)c1ccc(-c2c[nH]c3ncc(-c4ccccc4)cc23)cc1C1CCCC1 [GSK-650394]; settings: top dose 16 µM; top dose inferred
Protocol: as §1

[6] = compound: NC(=O)Nc1cc(-c2cccc(F)c2)sc1C(=O)N[C@H]1CCCNC1 [AZD7762]; settings: top dose 2 µM
Protocol: as §1

[7] = compound: COc1cc(C(=O)NC2CCN(C)CC2)ccc1Nc1ncc2c(n1)N(C1CCCC1)C(C)CC(=O)N2C [NPK76-II-72-1]; settings: top dose 10.24 µM; top dose inferred
Protocol: as §1

[8] = compound: C=C(c1ccc(C(=O)O)cc1)c1cc2c(cc1C)C(C)(C)CCC2(C)C [Bexarotene]; settings: top dose 8 µM
Protocol: as §1

Row | Cell Line | AUC [1] | IC50 [1] [µM] | AUC [2] | IC50 [2] [µM] | AUC [3] | IC50 [3] [µM] | AUC [4] | IC50 [4] [µM] | AUC [5] | IC50 [5] [µM] | AUC [6] | IC50 [6] [µM] | AUC [7] | IC50 [7] [µM] | AUC [8] | IC50 [8] [µM]
1 | NCI-H1869 (lung squamous cell carcinoma, adherent) | 0.909 | > 16 | 0.961 | > 5 | 0.978 | > 16 | 0.859 | > 10 | 0.981 | > 16 | 0.735 | 0.646 | 0.963 | > 10.2 | 0.925 | > 8
2 | NCI-H1944 (lung adenocarcinoma, adherent) | 0.633 | 2.39 | 0.93 | > 5 | 0.639 | 2.5 | 0.722 | 2.8 | 0.91 | > 16 | 0.577 | 0.206 | 0.789 | 4.86 | 0.925 | > 8
3 | NCI-H1975 (lung adenocarcinoma, adherent) | 0.874 | > 16 | 0.943 | > 5 | 0.681 | 3.47 | 0.813 | 6.39 | 0.983 | > 16 | 0.786 | 1 | 0.954 | > 10.2 | 0.983 | > 8
4 | NCI-H2009 (lung adenocarcinoma, adherent) | 0.953 | > 16 | 0.972 | > 5 | 0.467 | 0.811 | 0.823 | 6.31 | 0.675 | 3.18 | 0.791 | 0.958 | 0.982 | > 10.2 | 0.964 | > 8
5 | NCI-H2029 (small cell lung carcinoma, adherent) | 0.936 | > 16 | 0.991 | > 5 | 0.868 | 12.3 | 0.969 | > 10 | 0.987 | > 16 | 0.91 | > 2 | 0.862 | 7.39 | 0.992 | > 8
6 | NCI-H2081 (small cell lung carcinoma, suspension) | 0.798 | 8.09 | 0.986 | > 5 | 0.717 | 4.29 | 0.97 | > 10 | 0.949 | > 16 | 0.882 | > 2 | 0.929 | > 10.2 | 0.987 | > 8
7 | NCI-H2135 (non-small cell lung carcinoma, adherent) | 0.899 | > 16 | 0.982 | > 5 | 0.785 | 6.64 | 0.99 | > 10 | 0.939 | > 16 | 0.981 | > 2 | 0.85 | 7.42 | 0.941 | > 8
8 | NCI-H2141 (small cell lung carcinoma, suspension) | 0.888 | > 16 | 0.982 | > 5 | 0.798 | 7.4 | 0.99 | > 10 | 0.977 | > 16 | 0.92 | > 2 | 0.983 | > 10.2 | 0.991 | > 8
9 | NCI-H2172 (non-small cell lung carcinoma, adherent) | 0.866 | > 16 | 0.974 | > 5 | 0.944 | > 16 | 0.921 | > 10 | 0.979 | > 16 | 0.942 | > 2 | 0.955 | > 10.2 | 0.982 | > 8
10 | NCI-H2227 (small cell lung carcinoma, semi-adherent) | 0.854 | 15.3 | 0.974 | > 5 | 0.949 | > 16 | 0.908 | > 10 | 0.984 | > 16 | 0.828 | 1.46 | 0.478 | 0.555 | 0.982 | > 8
11 | NCI-H2291 (lung adenocarcinoma, adherent) | 0.957 | > 16 | 0.895 | > 5 | 0.982 | > 16 | 0.918 | > 10 | 0.983 | > 16 | 0.9 | > 2 | 0.984 | > 10.2 | 0.983 | > 8
12 | NCI-H2342 (lung adenocarcinoma, adherent) | 0.962 | > 16 | 0.801 | 2.73 | 0.458 | 0.757 | 0.962 | > 10 | 0.611 | 2.09 | 0.899 | > 2 | 0.982 | > 10.2 | 0.883 | > 8
13 | NCI-H2347 (lung adenocarcinoma, adherent) | 0.883 | > 16 | 0.902 | > 5 | 0.795 | 9.32 | 0.854 | > 10 | 0.926 | > 16 | 0.833 | 1.69 | 0.967 | > 10.2 | 0.969 | > 8
14 | NCI-H2405 (lung adenocarcinoma, adherent) | 0.884 | > 16 | 0.933 | > 5 | 0.647 | 2.68 | 0.864 | > 10 | 0.909 | > 16 | 0.949 | > 2 | 0.934 | > 10.2 | 0.915 | > 8

IC50 is the fitted dose that halves viability relative to control wells, and lower means more sensitive; fits outside the tested doses are given as limits. AUC sums up the same curve from the lowest dose to the 256-fold higher top dose; it is 1 without any effect and falls as sensitivity rises. For some assays here: The top dose, if marked as inferred, comes from the curve model; the source does not state it.
